# From the supplement of paper PMC8728848
# Some of the results follow.
# B1: a L Fucosidase (Streptosporangium roseum), D2B1P1_STRRD (protein)
# chain: MRRKLLLVPAVGLLVIGSIFATQPVASADTPPVYEPTVESLNSHPVPQWFNDDKFGIFIHWGAYSVPAWGPRGSYAEWYGNYMNAGGSATNAHHKATYGQDFNYDAFLQQWKAEKFDPADWVKLFKDAGAKYFVLTSKHHEGMALWDSKSSGRDSVDLGPGRDLAKELFDAARKDEAKLKAGFYYSLYEWYNPAYTGRPATNPYTGAEIPYTGAPGGGDYVKDYMLPQMRELIDGYDPDIIWCDGQWEKPASYWNTAGVIADYYNKALNSGKEVAVANRCKIQSGNLDSPELDFQTPEYTVKPDIDPVKWESSRGIAHSYGYNQNEPEEDHLTSDQLVDSLVDIVSKNGNLLLDIGPKADGTIPEIQRQRLLDIGAWLKANGEAIYGTTYWNRAEEKGGPDDVRYTAKDATLYATALKWPGEQLTLGADLPVDHSTRITMLGSGARLSWSRDEQGRVVVNTPQEAGKHAYVFKIETPGVRSLLRTSSSLAKEIAPGRTISGELTVTNPGKRHTPATKLSLTVPQGWTATLGAPRVRPLGPGESVKVPISVSAPEGVAPAPYTLGLYQRTGRMGTTTALPLTVNRPNLSLGKPATQKSTGYDAPASRAVDGNTGGDWSAGSTTHTAEPEKQAWWQVDLGASARLDSVDVWNRLDCCADRLKDFWVMASDQPFTTDDLDQARTAPGVTAVHVGEQAGSPSKVKLPEGTRGRYVRIQLASPSNPLSLAEVQVRGSMARPNLSLGKPATQKSTGYDAPASRAVDGNTGGDWSAGSTTHTAEPEKQAWWQVDLGASARLDSVDVWNRLDCCADRLKDFWVMASDQPFTTDDLDQARTAPGVTAVHVGEQAGSPSKVKLPEGTRGRYVRIQLASPSNPLSLAEVQVRLEHHHHHHS
# Experiments:
# Assay in all cases: glycan array binding signal (z-score within array); higher = stronger binding
# Details in all cases: glycan notation: IUPAC condensed, linker removed
# [1] = biological target: Gal(b1-4)GalNAc(b1-3)[Fuc(a1-2)]Gal(b1-4)GlcNAc
# Method in brief: (§1)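 Arrays were curated from the Consortium for Functional Glycomics database, 3228 in total, and kept only where the protein sequence was available. Binding is expressed as a within-array Z-score. This score was averaged across arrays of the same protein sequence at different concentrations or buffers and across linkers, and negative values can be read as non-binding.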
# Gal(b1-4)Glc = biological target: Gal(b1-4)Glc
# Method in brief: as §1
# Gal(b1-4)Glc6S = biological target: Gal(b1-4)Glc6S
# Method in brief: as §1
# Gal(b1-4)GlcNAc = biological target: Gal(b1-4)GlcNAc
# Method in brief: as §1
# [2] = biological target: Gal(b1-4)GlcNAc(a1-6)Gal(b1-4)GlcNAc
# Method in brief: as §1
# Gal(b1-4)GlcNAc(b1-2)Man = biological target: Gal(b1-4)GlcNAc(b1-2)Man
# Method in brief: as §1
# [3] = biological target: Gal(b1-4)GlcNAc(b1-2)Man(a1-3)Man(b1-4)GlcNAc(b1-4)GlcNAc
# Method in brief: as §1
# [4] = biological target: Gal(b1-4)GlcNAc(b1-2)Man(a1-3)[Gal(b1-4)GlcNAc(b1-2)Man(a1-6)]Man(b1-4)GlcNAc(b1-4)GlcNAc
# Method in brief: as §1
# [5] = biological target: Gal(b1-4)GlcNAc(b1-2)Man(a1-3)[Gal(b1-4)GlcNAc(b1-2)Man(a1-6)]Man(b1-4)GlcNAc(b1-4)[Fuc(a1-6)]GlcNAc
# Method in brief: as §1
# [6] = biological target: Gal(b1-4)GlcNAc(b1-2)Man(a1-3)[Gal(b1-4)GlcNAc(b1-2)Man(a1-6)][Gal(b1-4)GlcNAc(b1-4)]Man(b1-4)GlcNAc(b1-4)[Fuc(a1-6)]GlcNAc
# Method in brief: as §1
# [7] = biological target: Gal(b1-4)GlcNAc(b1-2)Man(a1-3)[Gal(b1-4)GlcNAc(b1-2)Man(a1-6)][GlcNAc(b1-4)]Man(b1-4)GlcNAc(b1-4)[Fuc(a1-6)]GlcNAc
# Method in brief: as §1
# [8] = biological target: Gal(b1-4)GlcNAc(b1-2)Man(a1-3)[GlcNAc(b1-2)Man(a1-6)]Man(b1-4)GlcNAc(b1-4)GlcNAc
# Method in brief: as §1
# [9] = biological target: Gal(b1-4)GlcNAc(b1-2)Man(a1-3)[GlcNAc(b1-4)][Gal(b1-4)GlcNAc(b1-2)Man(a1-6)]Man(b1-4)GlcNAc(b1-4)GlcNAc
# Method in brief: as §1
# [10] = biological target: Gal(b1-4)GlcNAc(b1-2)Man(a1-3)[Man(a1-6)]Man(b1-4)GlcNAc(b1-4)GlcNAc
# Method in brief: as §1
# [11] = biological target: Gal(b1-4)GlcNAc(b1-2)Man(a1-6)Man(b1-4)GlcNAc(b1-4)GlcNAc
# Method in brief: as §1
# [12] = biological target: Gal(b1-4)GlcNAc(b1-2)Man(a1-6)[GlcNAc(b1-2)Man(a1-3)]Man(b1-4)GlcNAc(b1-4)GlcNAc
# Method in brief: as §1
# [13] = biological target: Gal(b1-4)GlcNAc(b1-2)Man(a1-6)[Man(a1-3)]Man(b1-4)GlcNAc(b1-4)GlcNAc
# Method in brief: as §1
# [14] = biological target: Gal(b1-4)GlcNAc(b1-2)[Gal(b1-4)GlcNAc(b1-4)]Man(a1-3)[Gal(b1-4)GlcNAc(b1-2)Man(a1-6)]Man(b1-4)GlcNAc(b1-4)GlcNAc
# Method in brief: as §1
# [15] = biological target: Gal(b1-4)GlcNAc(b1-2)[Gal(b1-4)GlcNAc(b1-4)]Man(a1-3)[Gal(b1-4)GlcNAc(b1-2)[Gal(b1-4)GlcNAc(b1-6)]Man(a1-6)]Man(b1-4)GlcNAc(b1-4)GlcNAc
# Method in brief: as §1
# [16] = biological target: Gal(b1-4)GlcNAc(b1-2)[Gal(b1-4)GlcNAc(b1-4)]Man(a1-3)[GlcNAc(b1-4)][Gal(b1-4)GlcNAc(b1-2)Man(a1-6)]Man(b1-4)GlcNAc(b1-4)GlcNAc
# Method in brief: as §1
# [17] = biological target: Gal(b1-4)GlcNAc(b1-2)[Gal(b1-4)GlcNAc(b1-4)]Man(a1-3)[GlcNAc(b1-4)][Gal(b1-4)GlcNAc(b1-2)[Gal(b1-4)GlcNAc(b1-6)]Man(a1-6)]Man(b1-4)GlcNAc(b1-4)GlcNAc
# Method in brief: as §1
# [18] = biological target: Gal(b1-4)GlcNAc(b1-2)[Gal(b1-4)GlcNAc(b1-6)]Man(a1-6)[Gal(b1-4)GlcNAc(b1-2)Man(a1-3)]Man(b1-4)GlcNAc(b1-4)GlcNAc
# Method in brief: as §1
# [19] = biological target: Gal(b1-4)GlcNAc(b1-2)[Gal(b1-4)GlcNAc(b1-6)]Man(a1-6)[Gal(b1-4)GlcNAc(b1-2)Man(a1-3)]Man(b1-4)GlcNAc(b1-4)[Fuc(a1-6)]GlcNAc
# Method in brief: as §1
# [20] = biological target: Gal(b1-4)GlcNAc(b1-2)[Gal(b1-4)GlcNAc(b1-6)]Man(a1-6)[GlcNAc(b1-4)][Gal(b1-4)GlcNAc(b1-2)Man(a1-3)]Man(b1-4)GlcNAc(b1-4)GlcNAc
# Method in brief: as §1
# [21] = biological target: Gal(b1-4)GlcNAc(b1-2)[Gal(b1-4)GlcNAc(b1-6)]Man(a1-6)[GlcNAc(b1-4)][Gal(b1-4)GlcNAc(b1-2)[Gal(b1-4)GlcNAc(b1-4)]Man(a1-3)]Man(b1-4)GlcNAc(b1-4)[Fuc(a1-6)]GlcNAc
# Method in brief: as §1
# [22] = biological target: Gal(b1-4)GlcNAc(b1-3)Gal(b1-3)GalNAc
# Method in brief: as §1
# [23] = biological target: Gal(b1-4)GlcNAc(b1-3)Gal(b1-3)GlcNAc
# Method in brief: as §1
# [24] = biological target: Gal(b1-4)GlcNAc(b1-3)Gal(b1-4)Glc
# Method in brief: as §1
# [25] = biological target: Gal(b1-4)GlcNAc(b1-3)Gal(b1-4)GlcNAc
# Method in brief: as §1
# [26] = biological target: Gal(b1-4)GlcNAc(b1-3)Gal(b1-4)GlcNAc(b1-2)Man(a1-3)[Gal(b1-4)GlcNAc(b1-3)Gal(b1-4)GlcNAc(b1-2)Man(a1-6)]Man(b1-4)GlcNAc(b1-4)GlcNAc
# Method in brief: as §1
binder,measurement,setting,value
B1,glycan array binding signal (z-score),[1],-0.503
same,glycan array binding signal (z-score),Gal(b1-4)Glc,-0.181
same,glycan array binding signal (z-score),Gal(b1-4)Glc6S,-0.446
same,glycan array binding signal (z-score),Gal(b1-4)GlcNAc,-0.42
same,glycan array binding signal (z-score),[2],-0.439
same,glycan array binding signal (z-score),Gal(b1-4)GlcNAc(b1-2)Man,0.742
same,glycan array binding signal (z-score),[3],0.732
same,glycan array binding signal (z-score),[4],0.443
same,glycan array binding signal (z-score),[5],-0.175
same,glycan array binding signal (z-score),[6],1.72
same,glycan array binding signal (z-score),[7],1.9
same,glycan array binding signal (z-score),[8],-0.371
same,glycan array binding signal (z-score),[9],-0.239
same,glycan array binding signal (z-score),[10],1.25
same,glycan array binding signal (z-score),[11],-0.228
same,glycan array binding signal (z-score),[12],-0.121
same,glycan array binding signal (z-score),[13],-0.263
same,glycan array binding signal (z-score),[14],-0.455
same,glycan array binding signal (z-score),[15],-0.478
same,glycan array binding signal (z-score),[16],-0.258
same,glycan array binding signal (z-score),[17],-0.164
same,glycan array binding signal (z-score),[18],-0.309
same,glycan array binding signal (z-score),[19],-0.467
same,glycan array binding signal (z-score),[20],0.002
same,glycan array binding signal (z-score),[21],0.133
same,glycan array binding signal (z-score),[22],-0.541
same,glycan array binding signal (z-score),[23],-0.307
same,glycan array binding signal (z-score),[24],-0.33
same,glycan array binding signal (z-score),[25],-0.184
same,glycan array binding signal (z-score),[26],0.009
